Assay results: the supplement of paper PMC3334620
Whole data set: some 33,000 sequences, median “E-score (-0.5 to 0.5)” near -0.035, cut for the highest 2% near 0.35. The list shows a part of the results.

Biological target: T1, Pdr3 (UniProt P33200)
T1 sequence: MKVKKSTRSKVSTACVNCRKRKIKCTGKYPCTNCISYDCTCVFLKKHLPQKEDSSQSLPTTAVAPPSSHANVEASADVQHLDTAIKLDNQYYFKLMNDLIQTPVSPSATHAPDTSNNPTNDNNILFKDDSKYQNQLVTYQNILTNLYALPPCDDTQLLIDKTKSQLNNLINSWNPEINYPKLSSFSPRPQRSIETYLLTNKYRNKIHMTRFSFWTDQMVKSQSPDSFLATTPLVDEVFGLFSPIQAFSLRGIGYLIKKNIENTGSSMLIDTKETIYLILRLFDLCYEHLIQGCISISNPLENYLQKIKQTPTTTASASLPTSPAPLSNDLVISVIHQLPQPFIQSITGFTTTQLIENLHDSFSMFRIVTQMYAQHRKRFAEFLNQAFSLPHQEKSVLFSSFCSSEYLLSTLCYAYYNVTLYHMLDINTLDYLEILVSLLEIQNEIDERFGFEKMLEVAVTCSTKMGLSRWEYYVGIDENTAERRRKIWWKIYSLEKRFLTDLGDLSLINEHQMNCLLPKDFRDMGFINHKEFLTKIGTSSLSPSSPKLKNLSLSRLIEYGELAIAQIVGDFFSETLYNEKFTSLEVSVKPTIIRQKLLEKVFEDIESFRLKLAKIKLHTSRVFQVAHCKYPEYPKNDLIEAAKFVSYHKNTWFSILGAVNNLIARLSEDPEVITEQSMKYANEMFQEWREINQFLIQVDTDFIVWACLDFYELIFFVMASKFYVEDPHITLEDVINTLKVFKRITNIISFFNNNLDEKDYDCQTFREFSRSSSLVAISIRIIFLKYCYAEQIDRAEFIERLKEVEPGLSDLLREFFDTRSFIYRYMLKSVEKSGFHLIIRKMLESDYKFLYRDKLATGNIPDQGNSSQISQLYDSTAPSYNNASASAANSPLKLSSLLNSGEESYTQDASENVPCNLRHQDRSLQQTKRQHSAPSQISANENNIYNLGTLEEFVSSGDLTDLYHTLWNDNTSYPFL
Test: PBM E-score (8-mer binding enrichment) (E-score (-0.5 to 0.5)); higher = stronger / more preferred TF binding; most listed sequences are background and not binding sites
Conditions: protein concentration: 200 nM; construct: GST-full length
Experimental: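 Universal 'all 10-mer' protein binding microarrays (Agilent AMADID 015681) probed with GST-tagged S. cerevisiae TFs (full-length or DBD) made by in vitro transcription/translation (PURExpress), about 100-200 nM. Bound TF was detected with fluorescent anti-GST. Each ungapped 8-mer (which stands for itself and its reverse complement) is scored by the PBM enrichment score (E-score), a modified Wilcoxon-Mann-Whitney statistic from -0.5 to +0.5, computed with the Universal PBM Analysis Suite. Scale: above 0.35 generally sequence-specific binding.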

Sequence	PBM E-score
GCCGCCTA	-0.0979
GTCAACAA	-0.0887
AGCCAGCC	-0.168
ACTGTCTG	-0.105
AAATAGTA	0.152
CCAAAACC	-0.0021
AATCAAGA	-0.0664
TAAAAGTA	-0.0121
ATGGCCCA	0.0826
CCCCTCCC	0.0589
CGTTACGA	0.0482
GGTTCTGA	-0.109
GCATGCGA	0.169
GCCGTGAC	0.133
TGATAAAA	-0.106
GATTTCAA	0.0876
ATAGGACG	-0.0149
GGCTACCA	-0.144
AGCCACCT	-0.281
ATGATTAG	-0.00126
GGATGGTA	0.116
GGACATTA	0.22
ACGTAACC	-0.139
CAATGATG	-0.0442
CCCGGTGA	0.156

Sequence	PBM E-score
AGTCATCA	-0.0174
ATCGACTC	-0.096
CGTCGCAG	-0.167
AGCCCAAC	-0.193
ATCTTGAG	-0.0987
GGGACGAA	0.162
CAGGGCGA	0.0342
GGAGATAC	0.221
CGTGACAA	0.0645
CTTCCCGA	0.291
AACGCATT	0.052
ACTGACCG	-0.00211
CATCTTGA	-0.139
AGAGTTTG	-0.057
TACGCCTA	-0.129
GGGTGTCA	-0.0115
CCCCGACC	0.0391
CGGCAACA	0.153
AATAATGC	0.16
CGTCACCA	-0.147
AAACCTGC	-0.0837
TACGAAAA	-0.149
ACTAAAAC	-0.0196
AGCTGTCC	-0.116
TAGAGCGA	-0.247

Sequence	PBM E-score
ACACGCCA	-0.0389
ACTCCCGC	0.189
ATGTAAAC	0.0323
CGGAGCAA	0.338
CTCTTACA	-0.239
CGGATCTA	0.268
ACAGATAT	-0.0248
AAACTAAG	0.0156
ACGTTTCG	-0.11
CATCAAAA	-0.0452
GAATAGGA	0.0694
ATCATCAT	-0.0567
GTTCGCCA	0.0685
GCCCGCAA	0.24
AAAGGACT	-0.111
CACTCGAC	-0.0814
GGGGTATA	-0.0503
CGGCATTC	0.263
GGACAAAA	0.272
ATGCACCC	0.136
AGCCCACA	-0.286
ACATGGAC	-0.15
CAAATGTC	-0.165
TCATTTCA	-0.0161
CTGAGAAC	-0.0961

Sequence	PBM E-score
ATTGGCGC	0.0678
CTGGGAAG	-0.176
AAAGGGCC	-0.189
ACGATAAG	0.051
AATTCTAC	-0.126
AAAAAGAG	-0.192
CGGGACGA	0.239
ACTTAAGC	-0.0629
CCAGGGCC	-0.118
GGAATGGA	0.212
AGACCGAG	0.146
GCGAATAA	0.0522
AAGTCCAG	-0.0628
CTTCTGAA	0.0257
ACATGGCG	0.0149
AAGTTAAA	-0.216
ATAGGTAG	-0.23
CCGCGACG	0.138
GCTTGCAA	-0.0506
TAATCTCA	-0.1
ACGGGCTA	-0.0674
CAGCACCC	-0.215
GCTGGCAC	-0.282
ATTTGTCC	0.161
ATCAAGAG	0.0435

Sequence	PBM E-score
CTCACCAA	0.136
ACGTGCGA	-0.0586
ATGGAATC	0.205
ATTGGACC	-0.0639
CTGATGCC	0.0333
CTTTCTCC	0.0502
CTAATCAC	0.0587
ACTACATA	-0.196
AACCGCAA	0.0963
GTCTCTAA	-0.0701
CCAAAGCC	-0.0696
ACACAGTC	-0.0508
CCGTCTAG	0.178
CTCATGGC	0.0503
TAGCTATA	-0.197
GCCCTAAC	0.13
AAGGACTG	-0.168
GTTCCCGA	0.267
CAAAAGGC	-0.131
TTAAACAA	-0.279
CATCCGGG	0.261
CATTTTCC	0.221
GGCACGCC	-0.111
GTATACGA	-0.0247
AATGAACA	-0.0284

Sequence	PBM E-score
CGGCCACA	0.199
GCATGCTA	-0.115
ACGACCCA	-0.0346
ATGTATAC	0.0336
CATTGATC	0.13
GAACTTTA	-0.0456
CGGGCCTA	0.0856
GACGAGCC	-0.031
ACCCGGAT	0.31
ACACGGCG	0.152
CGGACCAG	0.278
CAAAGCGC	0.0784
ATGAATGG	0.231
CGCAATTC	0.223
ACGCGTAA	-0.159
AGGCTCAA	-0.222
AACCTCAT	-0.0356
GCAACAGA	-0.0927
ATCCCGCC	0.322
ACCACAGG	-0.238
GGCTATAA	-0.0703
AGATAGAT	-0.22
ATCTCACG	0.0453
ATCCTTAG	-0.138
CTGTAAAC	-0.251

Sequence	PBM E-score
TAGAGGGA	-0.239
CGTATACC	-0.159
CTTCCCTC	-0.0815
ACCTCCCT	-0.106
ACGCCACA	-0.0473
CGGCATCC	0.266
AAGCAGGT	-0.0364
ACCGGAGC	0.356
CGAATACG	0.0296
CAACCTCG	0.0325
GCCTGACA	-0.08
CTATCTAC	-0.109
TCTGTGCA	-0.0818
TACCAACA	-0.164
TGGAGAAA	-0.126
CCAATCTA	-0.0105
AATCCCGC	0.333
AGTAAGTC	-0.11
AGTCGTCA	-0.339
GGCAAAAA	0.215
AAAACGCG	0.161
ACATCTCT	-0.166
